Laboratory results from paper PMC7819943, “Rice protein-binding microarrays: a tool to detect cis-acting elements near promoter regions in rice”.
Some of the results follow.

The sequences below were run against T1, OsWOX13 (Oryza sativa, UniProt Q5QMM3 1-267) (assay: protein-binding microarray (RPBM); PBS, 2% BSA, 51.3 ng/ul salmon testes DNA, 50 uM zinc acetate, 200 nM TF, 25 C, 1 h; high values mean tight binding). Conditions: protein: recombinant; tags: N-terminal polyhistidine and DsRed monomer fusion (pET32a); label: CyDye5-dUTP incorporated in the synthesized complementary strand; 3' TTTTT single-stranded linker to array surface; dsDNA, one strand shown.
T1 sequence: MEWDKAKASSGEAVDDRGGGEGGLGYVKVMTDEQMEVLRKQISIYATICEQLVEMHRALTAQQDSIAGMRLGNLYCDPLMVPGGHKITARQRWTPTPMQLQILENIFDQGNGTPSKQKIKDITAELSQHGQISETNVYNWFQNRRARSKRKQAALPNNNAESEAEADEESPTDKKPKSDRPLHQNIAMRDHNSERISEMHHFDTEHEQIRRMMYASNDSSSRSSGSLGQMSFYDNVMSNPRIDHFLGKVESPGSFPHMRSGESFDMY
Outline: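 The binding signal is fluorescence intensity per array feature (arbitrary units). Readings came from an Axon 4000B scanner after a washed, 2% BSA-blocked, double-stranded custom Agilent array had been incubated for 1 h at 25 °C with 200 nM protein and 50 µM zinc acetate. The protein was a Ni–NTA-purified transcription factor fused N-terminally to polyhistidine and DsRed, expressed in E. coli BL21-CodonPlus.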

Sequence | binding signal
AAATCTTAAATAATTGATAAAATAAAGATGTACTCAGTATCGGAGTCACCTAGTGCAG | 22000 fluorescence intensity (a.u.)
AAGATTTGCATAAGATTTATGATATTCGAATAAACCTTGGCGGAGTCACCTAGTGCAG | 11500 fluorescence intensity (a.u.)
AATTCTAATATATTTGATTGTTTCAAAATAAAGTCTTTGCCGGAGTCACCTAGTGCAG | 14700 fluorescence intensity (a.u.)
GCAGTTGAATATTGATTAGTTTATCTGACTTGTAGGGAACCGGAGTCACCTAGTGCAG | 13600 fluorescence intensity (a.u.)
ACAAATATGTCATGTATACATAGATAGATAAGATCATACACGGAGTCACCTAGTGCAG | 3350 fluorescence intensity (a.u.)
CGGAATAATTGGAAGTTTGTGGGTGTAGGAAAGTTCGATGCGGAGTCACCTAGTGCAG | 21600 fluorescence intensity (a.u.)
ACAGTTATCATTAGTCCATCACTACACCTACGGCTCATATCGGAGTCACCTAGTGCAG | 3280 fluorescence intensity (a.u.)
ATGCTGAGATGATTTGCTTTGCTGATCACAAAAGAAAGAACGGAGTCACCTAGTGCAG | 3330 fluorescence intensity (a.u.)
CCGTTTACGGGATTGATCATGAAGGCCACGGTAGATCATCCGGAGTCACCTAGTGCAG | 5300 fluorescence intensity (a.u.)
TATTGATTTTCTTGCTCTTTCCGGGCTTAATTAAGCTTGCCGGAGTCACCTAGTGCAG | 10500 fluorescence intensity (a.u.)
CATGATTTCTCATCAAATATACAAACTATAGATAAATTACCGGAGTCACCTAGTGCAG | 10500 fluorescence intensity (a.u.)
TCCCAATTTGCCATTAATCTACTCTCACTCATCACAGTCACGGAGTCACCTAGTGCAG | 10400 fluorescence intensity (a.u.)
GTATCTAAATTATCTGTCAGTTCTGGAGAACAATCAGAAACGGAGTCACCTAGTGCAG | 9910 fluorescence intensity (a.u.)
CTTAACTGTAACACTATTGCGTTGATTACTTCTACTTATTCGGAGTCACCTAGTGCAG | 15200 fluorescence intensity (a.u.)
CGTTCAGATTATTGTTAGTGGTGACTATTACTCCGTAGTACGGAGTCACCTAGTGCAG | 3660 fluorescence intensity (a.u.)
AGCAGATTTACATGTATATGCTTTTAGGCTGTTGAACGGGCGGAGTCACCTAGTGCAG | 3160 fluorescence intensity (a.u.)
AAATATCATGGCTAATCATCAGCATGAATAGTGTTTTCTACGGAGTCACCTAGTGCAG | 3300 fluorescence intensity (a.u.)
GTTAGATTGCGCATAACTGAACGGAATGCATAAGAAGTTGCGGAGTCACCTAGTGCAG | 33800 fluorescence intensity (a.u.)
ATTTGCTAATTAGGAAAACAAGTTACCACGAATTTGTTTTCGGAGTCACCTAGTGCAG | 26800 fluorescence intensity (a.u.)
TAAGTTCAATTGATGTTTATGTTTAAATAACTTATTGTTCCGGAGTCACCTAGTGCAG | 3420 fluorescence intensity (a.u.)
TCACCTCGTCAAGCTCAATCATTCATCCACTAGTCAAGGCCGGAGTCACCTAGTGCAG | 9510 fluorescence intensity (a.u.)

Sequence | binding signal
TGATAATTTTATCCTCTTATCCCCTTCGGATTAAATTATTCGGAGTCACCTAGTGCAG | 6610 fluorescence intensity (a.u.)
ACCCAGTAATTTCCAAATCTAAAGATAGGAGATTTTAGGACGGAGTCACCTAGTGCAG | 6740 fluorescence intensity (a.u.)
AGAAACACCATAATGGACACTAAATTACCATATCCTCAAGCGGAGTCACCTAGTGCAG | 5240 fluorescence intensity (a.u.)
CATCAATGACAGGAGGAACAACCTCAGAGGCTGGTACAAGCGGAGTCACCTAGTGCAG | 4900 fluorescence intensity (a.u.)
ATAAATAAACAAATAATCTTGACTCATCCTAATCCAGAGTCGGAGTCACCTAGTGCAG | 13600 fluorescence intensity (a.u.)
TCAAATTAAATAGCCTCATCAGGGGATTTACCATAGAACACGGAGTCACCTAGTGCAG | 7660 fluorescence intensity (a.u.)
GCCTATCTTGATTGGAAAACGCACAACCGGGTTGGATGCACGGAGTCACCTAGTGCAG | 28300 fluorescence intensity (a.u.)
TCCATAAACTATCATATTGATGGCTTTGTTAATCTCAAGACGGAGTCACCTAGTGCAG | 3780 fluorescence intensity (a.u.)
ATTGAGACAGACAGCCAGACAGGATAGTTAATACCACTTTCGGAGTCACCTAGTGCAG | 3880 fluorescence intensity (a.u.)
TACACACCATAATTGAAGTATTGAGTCACACATAATTGAACGGAGTCACCTAGTGCAG | 9690 fluorescence intensity (a.u.)
AAAATTAGTTTTGACACCCCTTGATACTTCCGATCTGCATCGGAGTCACCTAGTGCAG | 3180 fluorescence intensity (a.u.)
ATTAAACGTAGATTACTGACAAAACCCATTCTATAACCCCCGGAGTCACCTAGTGCAG | 6660 fluorescence intensity (a.u.)
AAAATAAAATTTATTAATAATATTTTATCTATATTTACGACGGAGTCACCTAGTGCAG | 8320 fluorescence intensity (a.u.)
GTTTGATTTTGACCAAAGTCAACACGTTAGCTGAAACGGACGGAGTCACCTAGTGCAG | 7770 fluorescence intensity (a.u.)
AGATGTTAATTGCTGAATACTTGTAGTCCCTTATGTTGATCGGAGTCACCTAGTGCAG | 22600 fluorescence intensity (a.u.)
TTTAACGTGATATATTGACCGCGGTTGACTAGTTGAGTCACGGAGTCACCTAGTGCAG | 12100 fluorescence intensity (a.u.)
CATGATAGAGCACCAAAAGGCTCTCATGGTGGAGCTGCGTCGGAGTCACCTAGTGCAG | 4010 fluorescence intensity (a.u.)
CGTTTATGATTTGTTCAGATTTAGTTATTGCAGTATATCTCGGAGTCACCTAGTGCAG | 32100 fluorescence intensity (a.u.)
TGCAGTGATTAGGGAACAGCTCCTTTTATTTACCTTTGTGCGGAGTCACCTAGTGCAG | 35500 fluorescence intensity (a.u.)
CGCTAATCTGATGGGTAACCCTACTCAAATCATTTCAAATCGGAGTCACCTAGTGCAG | 4220 fluorescence intensity (a.u.)
ATTTAATACTCTAAATTAGCGTCCAAACATCCGACGTGACCGGAGTCACCTAGTGCAG | 5500 fluorescence intensity (a.u.)
